# Measurements taken from PMC6212790.
# This is one part of the list. At the low end of the ranking the order means little.
# Molecular target: T1, GST-Rok (full length) (UniProt O34857)
# T1 sequence: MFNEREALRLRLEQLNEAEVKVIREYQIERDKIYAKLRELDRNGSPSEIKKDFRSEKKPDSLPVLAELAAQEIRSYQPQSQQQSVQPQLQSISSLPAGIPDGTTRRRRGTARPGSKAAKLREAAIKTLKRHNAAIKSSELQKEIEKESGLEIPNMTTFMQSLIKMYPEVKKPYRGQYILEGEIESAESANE
# Test: protein binding microarray;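 also: rank score from −0.5 (least bound) to 0.5 (best bound)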
# Details: Rok is a gene silencer of Bacillus subtilis; high values mean tight binding; most listed sequences are background and not binding sites; double strand, one strand shown
row,Sequence,binding signal [E-score]
1,AACAGTAC,0.286
2,ATCGCACC,-0.0112
3,CCCATTGA,-0.11
4,ATGCCGTG,-0.134
5,AGAATCCC,-0.079
6,AGGACCTG,-0.179
7,AGTATCGA,0.237
8,GGCTTCGA,-0.207
9,AGCTCTGC,-0.204
10,AGACTTCA,-0.0895
11,CCTTGAAA,-0.174
12,ACGTGTCA,-0.0965
13,CGGAGACC,-0.17
14,ATCCTTGG,0.0291
15,ATGTAGCC,0.0892
16,ACCACGCC,-0.0985
17,CGGGGGGC,-0.45
18,CTTCAAGA,-0.197
19,CATGCATG,-0.0782
20,GACTACCC,-0.0308
21,GAGGTGCC,-0.0909
22,CCCATGCG,-0.324
23,AAACTATT,0.458
24,CGAATAAA,0.062
25,ACACTTTA,0.0953

row,Sequence,binding signal [E-score]
1,AGAATTCA,0.0872
2,CTCGCCAA,-0.281
3,AATATCGT,0.23
4,ATCTAAGA,0.146
5,CGGGTTCC,-0.165
6,GGAGATTA,0.0692
7,CATGTCGG,-0.134
8,ATGGTGCC,-0.179
9,TATCCAGA,-0.0542
10,GGACCCAC,-0.274
11,CGAGATGC,-0.104
12,CGTAGCAG,-0.0243
13,CCTACCAA,-0.17
14,AGTGCCTG,-0.284
15,AGATTTCG,0.175
16,GGTGTGGA,-0.0962
17,CGGTCATC,0.0156
18,ATTCAGGA,-0.0702
19,CTTGCGGC,-0.19
20,ATACCGCA,0.17
21,GCCTCTCA,-0.227
22,CTATCTGA,0.068
23,CATCGGAA,-0.195
24,AGATGTCA,0.114
25,CAAGGATC,-0.0884

row,Sequence,binding signal [E-score]
1,CGGTACCA,0.125
2,GCGGGATA,-0.0361
3,CGCGACGC,-0.125
4,AGTGCCCG,-0.139
5,CTGACGAC,-0.0515
6,AGCCTTAG,-0.181
7,ACGAAGAT,0.201
8,ATACAGGG,-0.142
9,AATAGAAG,0.152
10,CCCCCGGG,-0.411
11,CATGGCAC,0.000675
12,GCATTAAA,-0.0493
13,CTGGGTCA,-0.129
14,ACAGCGGA,0.135
15,CGAAAGCC,-0.225
16,CATTGCCA,-0.068
17,CGGGGTGC,-0.264
18,ACAGCCCG,-0.11
19,CTGACGGC,-0.319
20,AACCTGTC,-0.0942
21,ACCGGACG,-0.302
22,ACCGATAA,0.187
23,CACATTAA,0.187
24,TATACTAA,0.364
25,ATTCCCGG,-0.171

row,Sequence,binding signal [E-score]
1,ATAAATGA,0.231
2,CACGTGGG,-0.127
3,GAAAATAC,0.351
4,GTAGTCCA,0.0665
5,TAACCAAA,0.0828
6,CCACAGTA,-0.103
7,CCACTCTA,0.0213
8,ATGCTCTG,-0.146
9,CTTTATAC,0.226
10,CTGTACGC,-0.225
11,ACGTTACC,0.0183
12,ACCAGACC,-0.00906
13,CCTTTTTA,0.17
14,CTGCCTAA,0.0586
15,CGCACAAA,-0.0539
16,CAAACGTG,-0.0474
17,CCTTCAAA,-0.204
18,ACCTCGAC,-0.158
19,ATACCTTG,-0.135
20,CAGCGATC,-0.177
21,AATTGGGG,-0.079
22,GCCACAGC,-0.334
23,CGATCGAG,-0.147
24,ATGTCGCA,-0.124
25,CAAGAGAA,-0.00719

row,Sequence,binding signal [E-score]
1,AAGCCACT,-0.238
2,AAAATGGT,-0.0689
3,ACGTCAAT,0.212
4,ACTCCGAT,-0.0845
5,CTACGCAC,-0.0795
6,AGTCGGGC,-0.224
7,GTGTTCCA,-0.244
8,AGCCTGTG,-0.107
9,GTACTCGA,0.0628
10,GCAGCCGA,-0.35
11,ATTTCGGC,-0.0874
12,GGGAGCAC,-0.362
13,ACATAGGC,0.0845
14,CCATAGGA,-0.0149
15,CCCCCCTC,-0.446
16,AATTGTTG,0.139
17,GAGGCCGC,-0.383
18,AGCCATAG,-0.0591
19,CCCAGAAC,-0.13
20,TAGAATAA,0.272
21,TCGGGAGA,0.0889
22,ACATGGTC,-0.0838
23,CCTGGGGC,-0.409
24,CTGATAAG,0.0753
25,GCACGTGA,0.165

row,Sequence,binding signal [E-score]
1,ATGAGCGC,-0.127
2,CAGAGCAA,0.00217
3,CCCCGTCA,-0.266
4,GTTGACAA,0.0497
5,CGATATTA,0.213
6,CTTGGGGA,-0.0863
7,CAGCCCGG,-0.158
8,CACAGACC,-0.211
9,CTTATTCA,-0.00685
10,CTCGTAAA,0.12
11,AACTGTGC,-0.00787
12,ACCATGAC,-0.00323
13,CGTTGTCA,0.09
14,AATACCCT,-0.0197
15,GGTCACAA,-0.0273
16,CCAAAGAG,-0.188
17,AGCCTCCA,-0.215
18,AATTGTCG,0.0786
19,ATCACCAT,0.0861
20,CTTGCTCC,-0.194
21,CATTCTGC,-0.127
22,ACTGCCCC,-0.271
23,TAGTTTAA,0.33
24,CTGTCTAC,0.15
25,CACGAGTC,-0.137

row,Sequence,binding signal [E-score]
1,ATGTAGCG,0.307
2,AGAGCCCT,-0.253
3,CACGGTCG,-0.121
4,CTGGGGTA,-0.113
5,GATTACAA,0.124
6,GAAAGGGA,-0.216
7,CCTTTCTC,-0.158
8,CGTACGCA,0.0937
9,GGGACAGA,-0.0957
10,GCGTGCTA,0.173
11,CACGAAAG,-0.037
12,CCCTTTGA,-0.37
13,AACCTTCT,-0.181
14,CTAGTAAA,0.328
15,AGCGAGCA,-0.18
16,CCCACATC,-0.248
17,AAATATGA,0.199
18,AAGCACCT,-0.164
19,CAGGAGTC,-0.059
20,ACGGGCCA,-0.0602
21,ATTTATCG,0.281
22,AATCTCAA,0.0439
